According to PubChem BioAssay AID1347165 (National Center for Advancing Translational Sciences (NCATS), 2019):
Out of some 220,000 compounds screened, about 5,700 (2.6%) were called active. The inconclusive results got no clear call from the source; some entries with a clear call stand among them for comparison. Calls come from the whole dose curve; as a rule, active = well fitted inhibition curve with a large enough effect; inconclusive = small, poorly fitted or top-dose-only effect; inactive = no such curve, though single readings can be large or run the other way. Potencies of inconclusive entries are doubtful fits and often do not repeat.

biological target: Lysine-specific demethylase 5B (Homo sapiens) (UniProt Q9UGL1); experiment: Primary screen for KDM5B Histone Demethylases FDH-coupled qHTS; conditions: FDH-coupled NADH fluorescence (FDH is formaldehyde dehydrogenase); activity change, negative = inhibition: at 57.7 µM (top of the series) unless noted; note: nearly all actives have a fitted effect of over 70% in size; for activity change, negative = inhibition: 0% is about no effect
UniProt Q9UGL1, sequence (Q9UGL1 whole entry, looked up): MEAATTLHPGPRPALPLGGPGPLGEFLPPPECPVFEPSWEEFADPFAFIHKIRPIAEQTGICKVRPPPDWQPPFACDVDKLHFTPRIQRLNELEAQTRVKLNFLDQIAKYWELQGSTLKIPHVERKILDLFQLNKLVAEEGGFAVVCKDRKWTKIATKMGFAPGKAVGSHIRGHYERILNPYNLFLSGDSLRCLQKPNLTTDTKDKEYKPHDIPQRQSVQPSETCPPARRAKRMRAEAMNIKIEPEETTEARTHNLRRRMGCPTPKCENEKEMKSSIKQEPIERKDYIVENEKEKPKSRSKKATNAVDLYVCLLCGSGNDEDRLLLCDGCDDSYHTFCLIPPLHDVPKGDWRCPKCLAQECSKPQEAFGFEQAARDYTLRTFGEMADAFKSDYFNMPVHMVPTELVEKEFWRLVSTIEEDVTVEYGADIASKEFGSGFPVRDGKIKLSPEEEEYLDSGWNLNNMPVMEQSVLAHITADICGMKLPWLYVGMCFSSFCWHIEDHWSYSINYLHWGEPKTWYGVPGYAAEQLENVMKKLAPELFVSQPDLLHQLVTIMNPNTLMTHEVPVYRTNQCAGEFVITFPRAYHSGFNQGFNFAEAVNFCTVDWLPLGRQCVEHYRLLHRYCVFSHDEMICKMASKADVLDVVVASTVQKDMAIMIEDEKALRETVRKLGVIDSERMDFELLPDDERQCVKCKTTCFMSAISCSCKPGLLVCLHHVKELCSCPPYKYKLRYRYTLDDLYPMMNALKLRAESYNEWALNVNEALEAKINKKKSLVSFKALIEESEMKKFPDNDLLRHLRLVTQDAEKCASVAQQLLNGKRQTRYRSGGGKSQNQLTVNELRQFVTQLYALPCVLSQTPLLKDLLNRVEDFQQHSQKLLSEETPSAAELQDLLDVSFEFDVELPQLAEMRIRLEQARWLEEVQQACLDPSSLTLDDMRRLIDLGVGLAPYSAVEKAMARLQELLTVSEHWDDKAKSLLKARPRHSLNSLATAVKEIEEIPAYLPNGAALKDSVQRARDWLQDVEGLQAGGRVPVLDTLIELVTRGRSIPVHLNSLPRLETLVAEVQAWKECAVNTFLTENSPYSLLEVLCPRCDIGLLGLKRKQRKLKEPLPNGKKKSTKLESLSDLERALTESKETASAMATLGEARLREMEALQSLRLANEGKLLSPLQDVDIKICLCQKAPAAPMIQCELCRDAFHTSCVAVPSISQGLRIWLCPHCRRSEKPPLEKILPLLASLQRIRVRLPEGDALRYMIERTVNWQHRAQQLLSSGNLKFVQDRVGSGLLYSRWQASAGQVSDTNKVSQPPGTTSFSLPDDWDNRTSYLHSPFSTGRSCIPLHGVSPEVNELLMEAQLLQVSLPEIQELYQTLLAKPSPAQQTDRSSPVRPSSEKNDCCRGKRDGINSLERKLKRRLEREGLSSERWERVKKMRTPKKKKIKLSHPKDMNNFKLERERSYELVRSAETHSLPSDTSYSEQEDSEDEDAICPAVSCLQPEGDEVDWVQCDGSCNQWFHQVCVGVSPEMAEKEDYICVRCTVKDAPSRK
In short: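 KDM5BΔAP (200 nM final) in 50 mM HEPES pH 7.5, 0.01% Tween-20 was preincubated 10 min at RT with compound over a concentration range. Substrate mix (H3K4me3 12.5 µM, α-KG 25 µM, Fe²⁺, ascorbate, NAD⁺, FDH) was added, and NADH fluorescence change over 30 min gave dose-response curves.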
Potency is the fitted concentration of half-maximal effect; tags give direction and shape of the fitted curve.

| Structure (SMILES) | Potency | activity change, negative = inhibition |
| --- | --- | --- |
| COCCNC(=O)[C@@H]1C[C@@H](c2ccc(F)cc2)N([S+](=O)([O-])c2cccnc2)C1 | active: 35.5 µM | – |
| COc1ccc(OCc2ccc(-c3nc(C#N)c(NC(C)c4ccccc4)o3)o2)cc1 (stereo not given) | inconclusive: 31.6 µM [inhibitor, partial curve, poor fit] | – |
| Cc1cccc(C)c1Nc1c(-c2ccccn2)nc2c(C)cccn12 | inconclusive: 44.7 µM [inhibitor, single point] | – |
| COCCn1c(=O)c2c(nc(-n3nc(C)c(C)c3C)n2Cc2ccccc2F)n(C)c1=O | – | inactive: 16.6% |
| COc1ccc2[nH]c(C[C@@H]3C[C@@H](C(C)C)[C@H](CNC(C)=O)C=C3C)nc2n1 | – | inactive: -9.6% [at 86.2 µM] |
| CCC(=O)Nc1ccc2oc(-c3ccc(OC)c(Br)c3)nc2c1 | inconclusive: 39.8 µM [inhibitor, partial curve, poor fit] | – |
| O/N=C/c1cn(-c2ccccc2)nc1-c1ccncc1 | – | inactive: 15.2% |
| CC(C)c1nc2c(c(-c3ccc(Cl)cc3)n1)CCN(Cc1ccsc1)CC2 | inconclusive: 50.1 µM [inhibitor, partial curve] | – |
| CCOc1ccc(C(=O)N2CCN(c3nnc4ccc(C(F)(F)F)cn34)CC2)cc1 | inconclusive: 10 µM [inhibitor, partial curve, poor fit] | – |
| Cc1c(Cl)c(=O)oc2cc(OC(=O)[C@@H](NC(=O)OC(C)(C)C)C(C)C)ccc12 | inconclusive: 31.6 µM [inhibitor, partial curve, poor fit] | – |
| COC(=O)c1ccccc1NC(=O)C1=CC(c2cccs2)=NS(=O)(=O)N1C | inconclusive: 44.7 µM [inhibitor, single point] | – |
| COc1ccc(-c2cc(-c3ccncc3)c3cncn3c2)cc1 | inconclusive: 28.2 µM [inhibitor, partial curve] | – |
| O=C(NCc1ccc(Cl)cc1)c1cc2n(n1)CC(c1ccc3c(c1)OCO3)OC2 (stereo not given) | active: 28.2 µM | – |
| Cc1ccccc1-c1cnc2[nH]cc(CC(=O)N3CCCC3)c2c1 | inconclusive: 35.5 µM [inhibitor, partial curve, poor fit] | – |
| O=C(C1CCN(S(=O)(=O)N2CCOCC2)CC1)N1CCc2nc3cc[nH]n3c(=O)c2C1 | active: 31.6 µM | – |
| CC1=C[C@@H](CNC(C)C)[C@H](C(C)C)C[C@H]1Cc1nnc(-c2ccc(N(C)C)cc2)o1 | inconclusive: 31.6 µM [inhibitor, single point] | – |
| Cn1nccc1C(=O)N1CCN(C(=O)N2CC3CC(C2)[C@H]2CCCC(=O)N2C3)CC1 (stereo not given in full) | – | inactive: 1.86% |
| COc1ccccc1-c1cnc(Nc2cccnc2)c2c1CCO2 | – | inactive: -12.7% [at 86.2 µM] |
| O=C1CC(c2ccccc2)N(C(=O)CNC(=O)c2cc3ccccc3[nH]2)CCCCCCN1 (stereo not given) | inconclusive: 20 µM [inhibitor, partial curve, poor fit] | – |
| CCN(C(=O)CSc1ccc(S(=O)(=O)N2CCOCC2)cn1)c1ccccc1 | – | inactive: -6.11% |
| Cc1ccccc1CNC(C)(C)CO | – | inactive: 19.7% |
| Cc1ccc2c(c1)C(c1ccc(F)cc1)N(C(=O)c1ccc(S(=O)(=O)N3CCCCC3)cc1)CC(=O)N2 (stereo not given) | inconclusive: 35.5 µM [inhibitor, partial curve, poor fit] | – |

| Structure (SMILES) | Potency | activity change, negative = inhibition |
| --- | --- | --- |
| Cc1cn2nc(C(=O)Nc3ccc4c(c3)OCCO4)cc2c(N2CCCC2)n1 | active: 25.1 µM | – |
| COc1ccc(C(=O)Nc2ccc3nc(SCC(=O)N4CCc5ccccc54)sc3c2)cc1 | inconclusive: 3.55 µM [inhibitor, partial curve, poor fit] | – |
| COc1ccc(-c2csc3ncnc(Nc4cccc(OC)c4)c23)cc1 | inconclusive: 39.8 µM [inhibitor, single point] | – |
| O=C1NCCCCCCN(C(=O)c2cc(C3CC3)[nH]n2)[C@H]2CCCC[C@@H]12 | inconclusive: 31.6 µM [inhibitor, single point] | – |
| O=C(CC[C@H]1NC(=O)c2ccccc2NC1=O)Nc1nc(-c2ccccn2)cs1 | inconclusive: 35.5 µM [inhibitor, partial curve, poor fit] | – |
| Cc1ccc(CN2CCc3oc(C)c(C(=O)NCCN4CCCCC4)c3C2)cc1 | inconclusive: 25.1 µM [inhibitor, single point] | – |
| Cc1nn(C(=O)CCC(=O)N2CCC(Cc3nncn3-c3ccccc3)CC2)c2ccccc12 | – | inactive: 1.09% |
| CCOCCCNC(=O)c1ccc(-n2c(-c3ccccc3)cc3c2CCC(C)C3)cc1 (stereo not given) | inconclusive: 6.31 µM [inhibitor, partial curve, poor fit] | – |
| Cc1ccc(C2(O)CCN(c3cc(C(F)(F)F)ccn3)CC2)nc1 | active: 25.1 µM | – |
| Cc1ccc(/C=N/Nc2ccc(S(=O)(=O)Nc3cccc(Cl)c3)cc2[N+](=O)[O-])s1 | – | inactive: 14.6% |
| CN(CC(=O)N(C1CCCCC1)C1CCS(=O)(=O)C1)c1ccc2ccccc2c1 (stereo not given) | inconclusive: 25.1 µM [inhibitor, partial curve, poor fit] | – |
| O=C(Cc1cccs1)NC1CC(=O)N(c2ccc(F)cc2)C1 (stereo not given) | – | inconclusive: -39% [inhibitor] |
| COCCN1CC(CO)C2(CCN(Cc3ccc(F)c(OC)c3)CC2)C1 (stereo not given) | inconclusive: 22.4 µM [inhibitor, single point] | – |
| COc1ccc(-c2nc3ccccc3s2)cc1NC(=O)c1ccccc1F | inconclusive: 0.794 µM [inhibitor, full curve, poor fit] | – |
| Cc1oc(-c2ccc(C(=O)NCc3ccccc3)cc2)nc1CN1CCc2ccccc21 | inconclusive: 28.2 µM [inhibitor, partial curve, poor fit] | – |
| CC(=O)Nc1cc(C(=O)N2CCN(C3CCCCC3)CC2)c2ccc(C)nc2c1 | inconclusive: 25.1 µM [inhibitor, partial curve, poor fit] | – |
| Cc1ccc(-n2ncc3c(Nc4cccc(C(=O)O)c4)ncnc32)cc1 | inconclusive: 0.891 µM [inhibitor, full curve, poor fit] | – |
| Cc1cccc(/C=C/c2onc(C)c2S(=O)(=O)N2CCC(C(=O)N3CCCCC3)CC2)c1 | inconclusive: 39.8 µM [inhibitor, single point] | – |
| O=C(Nc1nc(-c2cccc3ccccc23)cs1)c1cccs1 | inconclusive: 28.2 µM [inhibitor, partial curve, poor fit] | – |
| N#CC(C(=O)Nc1cccc(C(F)(F)F)c1)=C1CCCC1 | – | inactive: 14.6% |
| CCOP(=O)(OCC)c1nc(-c2ccc(C)cc2)oc1N(C)C | inconclusive: 28.2 µM [inhibitor, partial curve, poor fit] | – |
| COc1cccc(CN2C(=O)N(c3cccc(OC)c3)S(=O)(=O)c3ccccc32)c1 | – | inactive: 7.81% |

| Structure (SMILES) | Potency | activity change, negative = inhibition |
| --- | --- | --- |
| O=C(COc1ccc(Br)cc1)Nc1nc(-c2ccc(Br)o2)ns1 | – | inactive: 7.76% |
| COc1ccc(/C=C(/C#N)C(=O)Nc2cccc3ncccc23)cc1 | inconclusive: 28.2 µM [inhibitor, partial curve, poor fit] | – |
| Cc1ccc(-c2ccc(=O)n(CC(=O)NCCc3ccccc3)n2)cc1 | inconclusive: 1.41 µM [inhibitor, partial curve, poor fit] | – |
| O=S(=O)(NCCc1csc2nc(-c3ccccc3)nn12)c1cc(F)ccc1F | inconclusive: 28.2 µM [inhibitor, single point] | – |
| CCN(CC)Cc1cnc2c(C(=O)N3CCCCCCC3)cnn2c1 | – | inactive: 4.72% |
| COc1ccc(CNC(=O)c2cc3cc(OC)ccc3oc2=O)cc1 | inconclusive: 28.2 µM [inhibitor, partial curve, poor fit] | – |
| CCCCN(C)CCCNC(=O)c1cc(-c2cccs2)nc2ccccc12 | inconclusive: 31.6 µM [inhibitor, partial curve, poor fit] | – |
| COCCNC(=O)[C@H]1C[C@H](Oc2ccccc2)CN1C(=O)c1ccccc1OC | – | inactive: -5.98% |
| CN(C)C(=O)CN1C(=O)CO[C@H](c2ccc(NS(=O)(=O)Cc3ccccc3)cc2)[C@H]1CO | inconclusive: 25.1 µM [inhibitor, single point] | – |
| O=C(Cc1c(F)cccc1Cl)N[C@@H]1CCOC[C@H]1OCCO | – | inactive: 15% |
| COc1ccc2c(ccn2CC(=O)NCCCCCC(=O)O)c1 | – | inactive: 17.8% |
| O=C(Nc1ccc(-c2nnc3n2CCCC3)cc1)c1ccc2ccccc2n1 | inconclusive: 14.1 µM [inhibitor, partial curve, poor fit] | – |
| O=C(c1nnn2cc(-c3ccc(F)cc3)[nH]c(=O)c12)N1CCOCC1 | active: 31.6 µM | – |
| CCN(CC(C)(C)C)C(=O)CC1COc2ccc(C(=O)N(C)C)cc2N1C (stereo not given) | inconclusive: 11.2 µM [inhibitor, partial curve] | – |
| CC(C)c1noc(C2CCCN(Cc3cccnc3)CCC(=O)NCC2)n1 (stereo not given) | inconclusive: 22.4 µM [inhibitor, partial curve, poor fit] | – |
| N#Cc1c(/N=C/c2ccc(-c3ccc(C(=O)O)c(Cl)c3)o2)sc2c1CCCC2 | inconclusive: 39.8 µM [inhibitor, single point] | – |
| COc1ccc(CNC(=O)c2ccc3ccccc3c2)cc1 | – | inactive: -8.13% |
| COc1ccc(C2NC(=O)N(C)C3=C2C(=O)N(c2ccc(C(=O)O)cc2)C3)cc1 (stereo not given) | inconclusive: 28.2 µM [inhibitor, partial curve, poor fit] | – |
| Cc1ccc(OCCC(=O)N2CCN(S(=O)(=O)c3ccc(C)s3)CC2)cc1 | – | inactive: 9.73% |
| CSc1ncc(C(=O)NCc2ccccc2F)c(-c2ccccc2)n1 | – | inconclusive: -30.8% [inhibitor] |
| Cc1ccc(C)c(N2CCN(S(=O)(=O)c3ccc4c(c3)C(C(C)C)C(=O)N4)CC2)c1 (stereo not given) | inconclusive: 28.2 µM [inhibitor, partial curve, poor fit] | – |
